The list shows a part of the results.
Key:
Assay in all cases: glycan array binding signal (z-score within array); higher = stronger binding
Settings in all cases: glycan notation: IUPAC condensed, linker removed
[1] = molecular target: Man(a1-3)[Man(a1-6)]Man(b1-4)GlcNAc(b1-4)GlcNAc
Method in brief: (§1)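 The binding signal is a Z-score computed within each array. Data were drawn from 3228 arrays in the Consortium for Functional Glycomics database, restricted to those with a known protein sequence. Scores were averaged over arrays of the same protein sequence at different concentrations or buffers, and over linkers, and negative values can be taken as non-binding.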

[2] = molecular target: Man(a1-3)[Man(a1-6)]Man(b1-4)GlcNAc(b1-4)[Fuc(a1-6)]GlcNAc
Method in brief: as §1

Man(a1-6)Man = molecular target: Man(a1-6)Man
Method in brief: as §1

Man(b1-4)GlcNAc = molecular target: Man(b1-4)GlcNAc
Method in brief: as §1

Neu5Ac(a2-3)Gal = molecular target: Neu5Ac(a2-3)Gal
Method in brief: as §1

[3] = molecular target: Neu5Ac(a2-3)Gal(b1-3)GalNAc
Method in brief: as §1

[4] = molecular target: Neu5Ac(a2-3)Gal(b1-3)GalNAc(b1-3)Gal(a1-4)Gal(b1-4)Glc
Method in brief: as §1

[5] = molecular target: Neu5Ac(a2-3)Gal(b1-3)GalNAc(b1-3)Gal(b1-4)GlcNAc
Method in brief: as §1

[6] = molecular target: Neu5Ac(a2-3)Gal(b1-3)GalNAc(b1-4)[Neu5Ac(a2-3)]Gal(b1-4)Glc
Method in brief: as §1

[7] = molecular target: Neu5Ac(a2-3)Gal(b1-3)GalNAc(b1-4)[Neu5Ac(a2-8)Neu5Ac(a2-3)]Gal(b1-4)Glc
Method in brief: as §1

[8] = molecular target: Neu5Ac(a2-3)Gal(b1-3)GalNAc6S
Method in brief: as §1

[9] = molecular target: Neu5Ac(a2-3)Gal(b1-3)GlcNAc
Method in brief: as §1

[10] = molecular target: Neu5Ac(a2-3)Gal(b1-3)GlcNAc(b1-2)Man(a1-3)[GlcNAc(b1-4)][Neu5Ac(a2-3)Gal(b1-3)GlcNAc(b1-2)Man(a1-6)]Man(b1-4)GlcNAc(b1-4)GlcNAc
Method in brief: as §1

[11] = molecular target: Neu5Ac(a2-3)Gal(b1-3)GlcNAc(b1-3)Gal(b1-3)GlcNAc
Method in brief: as §1

[12] = molecular target: Neu5Ac(a2-3)Gal(b1-3)GlcNAc(b1-3)Gal(b1-4)GlcNAc
Method in brief: as §1

[13] = molecular target: Neu5Ac(a2-3)Gal(b1-3)GlcNAc(b1-3)GalNAc
Method in brief: as §1

[14] = molecular target: Neu5Ac(a2-3)Gal(b1-3)GlcNAc(b1-6)GalNAc
Method in brief: as §1

[15] = molecular target: Neu5Ac(a2-3)Gal(b1-3)GlcNAc6S
Method in brief: as §1

[16] = molecular target: Neu5Ac(a2-3)Gal(b1-3)[Fuc(a1-4)]GlcNAc
Method in brief: as §1

[17] = molecular target: Neu5Ac(a2-3)Gal(b1-3)[Fuc(a1-4)]GlcNAc(b1-3)Gal(b1-3)[Fuc(a1-4)]GlcNAc
Method in brief: as §1

[18] = molecular target: Neu5Ac(a2-3)Gal(b1-3)[Fuc(a1-4)]GlcNAc(b1-3)Gal(b1-4)[Fuc(a1-3)]GlcNAc
Method in brief: as §1

[19] = molecular target: Neu5Ac(a2-3)Gal(b1-3)[Neu5Ac(a2-3)Gal(b1-4)]GlcNAc
Method in brief: as §1

[20] = molecular target: Neu5Ac(a2-3)Gal(b1-3)[Neu5Ac(a2-6)]GalNAc
Method in brief: as §1

[21] = molecular target: Neu5Ac(a2-3)Gal(b1-3)[Neu5Ac(a2-6)]GlcNAc(b1-3)[Fuc(a1-3)[Gal(b1-4)]GlcNAc(b1-6)]Gal(b1-4)Glc
Method in brief: as §1

Neu5Ac(a2-3)Gal(b1-4)Glc = molecular target: Neu5Ac(a2-3)Gal(b1-4)Glc
Method in brief: as §1

[22] = molecular target: Neu5Ac(a2-3)Gal(b1-4)GlcNAc
Method in brief: as §1

[23] = molecular target: Neu5Ac(a2-3)Gal(b1-4)GlcNAc(b1-2)Man
Method in brief: as §1

[24] = molecular target: Neu5Ac(a2-3)Gal(b1-4)GlcNAc(b1-2)Man(a1-3)[GlcNAc(b1-2)Man(b1-4)GlcNAc(b1-2)Man(a1-6)]Man(b1-4)GlcNAc(b1-4)GlcNAc
Method in brief: as §1

[25] = molecular target: Neu5Ac(a2-3)Gal(b1-4)GlcNAc(b1-2)Man(a1-3)[Neu5Ac(a2-3)Gal(b1-4)GlcNAc(b1-2)Man(a1-6)]Man(b1-4)GlcNAc(b1-4)[Fuc(a1-6)]GlcNAc
Method in brief: as §1

[26] = molecular target: Neu5Ac(a2-3)Gal(b1-4)GlcNAc(b1-2)Man(a1-3)[Neu5Ac(a2-6)Gal(b1-4)GlcNAc(b1-2)Man(a1-6)]Man(b1-4)GlcNAc(b1-4)GlcNAc
Method in brief: as §1

[27] = molecular target: Neu5Ac(a2-3)Gal(b1-4)GlcNAc(b1-2)[Neu5Ac(a2-3)Gal(b1-4)GlcNAc(b1-6)]Man(a1-6)[Neu5Ac(a2-3)Gal(b1-4)GlcNAc(b1-2)Man(a1-3)]Man(b1-4)GlcNAc(b1-4)GlcNAc
Method in brief: as §1

[28] = molecular target: Neu5Ac(a2-3)Gal(b1-4)GlcNAc(b1-3)Gal
Method in brief: as §1

[29] = molecular target: Neu5Ac(a2-3)Gal(b1-4)GlcNAc(b1-3)Gal(b1-3)GlcNAc
Method in brief: as §1

[30] = molecular target: Neu5Ac(a2-3)Gal(b1-4)GlcNAc(b1-3)Gal(b1-4)GlcNAc
Method in brief: as §1

[31] = molecular target: Neu5Ac(a2-3)Gal(b1-4)GlcNAc(b1-3)Gal(b1-4)GlcNAc(b1-3)Gal(b1-4)GlcNAc
Method in brief: as §1

[32] = molecular target: Neu5Ac(a2-3)Gal(b1-4)GlcNAc(b1-3)Gal(b1-4)[Fuc(a1-3)]GlcNAc
Method in brief: as §1

[33] = molecular target: Neu5Ac(a2-3)Gal(b1-4)GlcNAc(b1-3)GalNAc
Method in brief: as §1

[34] = molecular target: Neu5Ac(a2-3)Gal(b1-4)GlcNAc(b1-3)[Neu5Ac(a2-3)Gal(b1-4)GlcNAc(b1-6)]GalNAc
Method in brief: as §1

[35] = molecular target: Neu5Ac(a2-3)Gal(b1-4)GlcNAc(b1-6)GalNAc
Method in brief: as §1

[36] = molecular target: Neu5Ac(a2-3)Gal(b1-4)GlcNAc(b1-6)[Gal(b1-3)]GalNAc
Method in brief: as §1

[37] = molecular target: Neu5Ac(a2-3)Gal(b1-4)GlcNAc(b1-6)[Neu5Ac(a2-3)Gal(b1-3)]GalNAc
Method in brief: as §1

[38] = molecular target: Neu5Ac(a2-3)Gal(b1-4)GlcNAc6S
Method in brief: as §1

[39] = molecular target: Neu5Ac(a2-3)Gal(b1-4)[Fuc(a1-3)]GlcNAc
Method in brief: as §1

[40] = molecular target: Neu5Ac(a2-3)Gal(b1-4)[Fuc(a1-3)]GlcNAc(b1-3)Gal
Method in brief: as §1

[41] = molecular target: Neu5Ac(a2-3)Gal(b1-4)[Fuc(a1-3)]GlcNAc(b1-3)Gal(b1-4)GlcNAc
Method in brief: as §1

B1: Calsepa (Calystegia sepium), P93114 (protein)
chain: MAVPMDTISGPWGNNGGNFWSFRPVNKINQIVISYGGGGNNPIALTFSSTKADGSKDTITVGGGGPDSITGTEMVNIGTDEYLTGISGTFGIYLDNNVLRSITFTTNLKAHGPYGQKVGTPFSSANVVGNEIVGFLGRSGYYVDAIGTYNRHK
glycan array binding signal (z-score) [1]: 3.5 | glycan array binding signal (z-score) [2]: 0.063 | glycan array binding signal (z-score) (Man(a1-6)Man): -0.251 | glycan array binding signal (z-score) (Man(b1-4)GlcNAc): -0.253 | glycan array binding signal (z-score) (Neu5Ac(a2-3)Gal): -0.245 | glycan array binding signal (z-score) [3]: -0.247 | glycan array binding signal (z-score) [4]: -0.241 | glycan array binding signal (z-score) [5]: -0.172 | glycan array binding signal (z-score) [6]: -0.252 | glycan array binding signal (z-score) [7]: -0.274 | glycan array binding signal (z-score) [8]: -0.246 | glycan array binding signal (z-score) [9]: -0.242 | glycan array binding signal (z-score) [10]: 0.993 | glycan array binding signal (z-score) [11]: -0.243 | glycan array binding signal (z-score) [12]: -0.276 | glycan array binding signal (z-score) [13]: -0.266 | glycan array binding signal (z-score) [14]: -0.271 | glycan array binding signal (z-score) [15]: -0.247 | glycan array binding signal (z-score) [16]: -0.247 | glycan array binding signal (z-score) [17]: -0.242 | glycan array binding signal (z-score) [18]: -0.236 | glycan array binding signal (z-score) [19]: -0.251 | glycan array binding signal (z-score) [20]: -0.237 | glycan array binding signal (z-score) [21]: -0.272 | glycan array binding signal (z-score) (Neu5Ac(a2-3)Gal(b1-4)Glc): -0.247 | glycan array binding signal (z-score) [22]: -0.248 | glycan array binding signal (z-score) [23]: -0.255 | glycan array binding signal (z-score) [24]: -0.13 | glycan array binding signal (z-score) [25]: -0.267 | glycan array binding signal (z-score) [26]: -0.087 | glycan array binding signal (z-score) [27]: -0.055 | glycan array binding signal (z-score) [28]: -0.272 | glycan array binding signal (z-score) [29]: -0.247 | glycan array binding signal (z-score) [30]: -0.248 | glycan array binding signal (z-score) [31]: -0.25 | glycan array binding signal (z-score) [32]: -0.25 | glycan array binding signal (z-score) [33]: -0.249 | glycan array binding signal (z-score) [34]: -0.273 | glycan array binding signal (z-score) [35]: -0.272 | glycan array binding signal (z-score) [36]: -0.251 | glycan array binding signal (z-score) [37]: -0.252 | glycan array binding signal (z-score) [38]: -0.238 | glycan array binding signal (z-score) [39]: -0.248 | glycan array binding signal (z-score) [40]: -0.245 | glycan array binding signal (z-score) [41]: -0.236
